Measurements published in the supplement of paper PMC10600219.
Where a name gives a salt, the structure may show the parent alone. Over roughly 2,800 compounds, “cell viability relative to vehicle” has its median near 0.98; the lowest 2% begin near 0.45. This is one part of the list.

These compounds were tested on NCI-H2228 alectinib-DTP (assay: cell viability relative to vehicle (fraction of vehicle); NCI-H2228 is an ALK-positive lung cancer line and DTP means drug-tolerant persister; higher = less growth inhibition). Settings: 100 nM; treatment time 6 days.
Summary of the method: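 Parental NCI-H2228 cells and drug-tolerant persister cells (made with 1000 nM of a targeted drug for 13 days) were seeded in 384-well plates. The next day, the 3114-agent TargetMol anti-cancer compound library was added at 100 nM, with DMSO as vehicle. After 6 days, ATP was read with the CellTiter-Glo 3D Cell Viability Assay. Each value is cell viability relative to vehicle-treated cells.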

| SMILES | cell viability |
| --- | --- |
| COc1cc2c(cc1OC)[C@@H]1Cc3ccc(OC)c(OC)c3CN1CC2 [Rotundine] | 1.07 |
| O=C(O)/C=C/C(=O)O [Fumaric acid] | 0.971 |
| CC1(C)CC[C@]2(C(=O)O)CC[C@]3(C)[C@H](C(=O)C=C4[C@@]5(C)C=C(C#N)C(=O)C(C)(C)[C@@H]5CC[C@]43C)[C@@H]2C1 [Bardoxolone] | 0.899 |
| Cc1ccc(C)c(OCCCC(C)(C)C(=O)O)c1 [Gemfibrozil] | 0.955 |
| Cc1ccc(Sc2ccccc2N2CCNCC2)c(C)c1 [Vortioxetine] | 0.914 |
| COc1ccc(CNc2nc(N(CCO)CCO)nc3c2ncn3C(C)C)cc1 | 1.07 |
| NCC(=O)CCC(=O)O [5-Aminolevulinic acid hydrochloride] | 0.979 |
| C[C@H](NC(=O)CCc1nc2ccccc2c(=O)[nH]1)c1ccccc1 | 0.922 |
| Cc1nn(C)cc1-c1nc2c(N3CCN(Cc4ccc(Cl)cc4)CC3)c(Cl)cnc2[nH]1 | 0.998 |
| CN1CCC(CNc2ccc3ncc(-c4cccc(OC(F)(F)F)c4)n3n2)CC1 [SGI-1776 free base] | 0.86 |
| CC(C[N+](C)(C)C)OC(N)=O (configuration not stated) [Bethanechol chloride] | 0.998 |
| NCCC(O)(P(=O)(O)O)P(=O)(O)O [Pamidronate disodium salt] | 0.98 |
| Cc1ccc2nc(NCCN)c3ncc(C)n3c2c1 | 0.901 |
| Cc1cn([C@H]2C[C@H](N=[N+]=[N-])[C@@H](CO)O2)c(=O)[nH]c1=O [Zidovudine] | 0.947 |
| CC(=O)c1cc([N+](=O)[O-])c(Sc2ccc(F)cc2F)s1 | 0.98 |
| Cc1nn2c([nH]c(=O)c3cccnc32)c1C#N | 1.02 |
| NS(=O)(=O)Cc1noc2ccccc12 [Zonisamide] | 0.928 |
| CN(C)CCN(Cc1ccc(Cl)cc1)c1ccccn1 [Chloropyramine hydrochloride] | 1.09 |
| C=CCc1ccc(O)c(-c2cc(CC=C)ccc2O)c1 [Magnolol] | 1.05 |
| COc1ccc2c(c1)C(=O)N(CCc1ccc(S(=O)(=O)NC(=O)NC3CCCCC3)cc1)C(=O)C2(C)C [Gliquidone] | 1.1 |
| CC(=O)OC(C)C(C)C(=O)OCC12C3CC(C)(C)[C@H](O[C@@H]1C[C@]1(C)C3=CCC3C4(C)CCC(O[C@@H]5O[C@H](C(=O)O)[C@@H](O[C@H]6O[C@H](CO)[C@@H](O)[C@H](O)[C@H]6O)[C@H](O)[C@H]5O[C@@H]5OC[C@@H](O)[C@H](O)[C@H]5O)[C@](C)(CO)C4CCC31C)C2O (some centres not stated) [Sodium Aescinate] | 0.996 |
| Cc1cnc(-c2cnc(NCCNc3ccc(C#N)cn3)nc2-c2ccc(Cl)cc2Cl)[nH]1 | 1.07 |
| CCNC(=O)c1noc(-c2cc(C(C)C)c(O)cc2O)c1-c1ccc(CN2CCOCC2)cc1 [Luminespib] | 0.48 |
| CNCc1ccc(-c2[nH]c3cc(F)cc4c3c2CCNC4=O)cc1 [Rucaparib Phosphate] | 1.04 |
| Nc1nc(=O)c2c([nH]1)NC[C@H](CNc1ccc(C(=O)N[C@@H](CCC(=O)O)C(=O)O)cc1)N2C=O [Calcium Levofolinate] | 1.11 |
| COc1ccc(CCc2nc3cc(-c4c(C)noc4C)ccc3n2C[C@H](C)N2CCOCC2)cc1Cl | 0.965 |

| SMILES | cell viability |
| --- | --- |
| Oc1nc(-c2ccc(C(F)(F)F)cc2)nc2c1CSCC2 | 0.982 |
| COc1ccc(-c2coc3cc(O[C@@H]4O[C@H](CO)[C@@H](O)[C@H](O)[C@H]4O)ccc3c2=O)cc1O [Calycosin-7-O-beta-D-glucoside] | 1.03 |
| CN[C@H](CNC(=O)N1CCC[C@@H]([C@@H](OCCNC(=O)OC)c2cccc(Cl)c2)C1)C[C@H]1CCCOC1 | 0.931 |
| CC(C)Cn1cnc2c(N)nc3ccccc3c21 [Imiquimod] | 1.02 |
| CCNC(=O)[C@@H]1CCCN1C(=O)[C@H](CCCNC(=N)N)NC(=O)[C@H](CC(C)C)NC(=O)[C@@H](CC(C)C)NC(=O)[C@H](Cc1ccc(O)cc1)NC(=O)[C@H](CO)NC(=O)[C@H](Cc1c[nH]c2ccccc12)NC(=O)[C@H](Cc1c[nH]cn1)NC(=O)[C@@H]1CCC(=O)N1 [Leuprolide Acetate] | 0.954 |
| CCCCN1CCC(CNC(=O)c2c3n(c4ccccc24)CCCO3)CC1 [Piboserod] | 1.16 |
| CCNc1nc(Nc2cc(F)c(C(=O)N3CCOCC3)cc2OC)ncc1C(F)(F)F | 0.962 |
| CC1(C)O[C@@H]2[C@@H](CO[C@@]3(COS(N)(=O)=O)OC(C)(C)O[C@@H]23)O1 [Topiramate] | 1.06 |
| C=C(C)[C@@H]1CC[C@]2(C)[C@H](CC=C3[C@@H]4[C@@H](C)[C@H](C)CC[C@]4(C)CC[C@]32C)[C@@]1(C)CCC(=O)O [Roburic acid] | 0.979 |
| O=C1Nc2ccc(I)cc2/C1=C/c1cc(Br)c(O)c(Br)c1 | 1.09 |
| N#Cc1ccc(COc2ccc(-c3cccc4nc(NC(=O)C5CC5)nn34)cc2)cn1 [GLPG0634 analogue] | 0.918 |
| CCCCCCOc1cc(C)c(O)c(C)c1C | 1.14 |
| Nc1cccc(-c2nc(N3CCOCC3)c3oc4ncccc4c3n2)c1 [PIK-inhibitors] | 1 |
| Cn1nnc(-c2ccc(-c3ccc(N4C[C@H](CO)OC4=O)cc3F)cn2)n1 [Torezolid] | 0.898 |
| NS(=O)(=O)c1ccc(NC(=O)Nc2ccc(F)cc2)cc1 | 0.976 |
| S=c1[nH]cnc2nc[nH]c12 [6-Mercaptopurine monohydrate] | 0.594 |
| S=c1[nH]cnc2nc[nH]c12 [Mercaptopurine] | 1 |
| COc1cc2c(cc1OC)[C@@H]1C(=O)c3ccc4c(c3O[C@@H]1CO2)C=CC(C)(C)O4 [Deguelin] | 1.08 |
| CCCCCCCCNC(C)C(O)c1ccc(SC(C)C)cc1 (configuration not stated) [Suloctidil] | 1 |
| C=C1CCC[C@]2(C)C[C@@H]3OC(=O)C(C)=C3C[C@@H]12 [Atractylenolide II] | 0.899 |
| O=C(O)c1cc(NCc2cc(O)ccc2O)ccc1O [lavendustin C] | 0.95 |
| C=C(C)[C@@H]1CC[C@]2(C)CC[C@]3(C)[C@H](CC[C@@H]4[C@@]5(C)CC[C@H](O)C(C)(C)[C@@H]5CC[C@]43C)[C@@H]12 [Lupeol] | 0.982 |
| O=C(NCCCNc1nc(Nc2cccc(NC(=O)N3CCCC3)c2)ncc1I)c1cccs1 | 0.96 |
| Cc1cccc(-c2[nH]ncc2-c2ccc3ncccc3n2)n1 | 1.18 |
| Cc1ccccc1C(=O)Nc1ccc(C(=O)N2CCCC(N(C)C)c3ccccc32)cc1 (configuration not stated) [Mozavaptan] | 1.1 |
| CCNC(=O)c1cc2c(-c3cc(OCCN4CCCC4)c(Cl)cc3Cl)nc(N)nc2s1 | 1.06 |

| SMILES | cell viability |
| --- | --- |
| O=C(NNc1ccccc1)c1ccncc1 [PluriSln 1] | 0.933 |
| CC(C)n1cnc2c(NCCc3ccc(O)cc3)nc(-c3csc4ccccc34)nc21 [StemRegenin 1] | 1.01 |
| CC(=O)O[C@@H]1CC[C@@]2(C)[C@@H](CC[C@]3(C)[C@@H]2C(=O)C=C2[C@@H]4[C@@H](C)[C@H](C)CC[C@]4(C)CC[C@]23C)[C@@]1(C)C(=O)O | 1.06 |
| O=C1OC(=O)[C@H]2[C@@H]1[C@@H]1CC[C@H]2O1 [Norcantharidin] | 0.988 |
| c1cc(CN2CCCNCCNCCCNCC2)ccc1CN1CCCNCCNCCCNCC1 [Plerixafor] | 0.843 |
| O=c1[nH]c(=O)n([C@H]2C[C@H](O)[C@@H](CO)O2)cc1C(F)(F)F [Trifluridine] | 0.929 |
| COC(=O)c1ccc(O)c(O)c1 [Methyl protocatechuate] | 0.879 |
| Cc1cc(C#N)cc(C)c1Oc1nc(Nc2ccc(C#N)cc2)nc(N)c1Br [Etravirine] | 0.997 |
| Cc1nnc(SCC2=C(C(=O)O)N3C(=O)[C@@H](NC(=O)Cn4cnnn4)[C@H]3SC2)s1 [Cefazolin sodium salt] | 0.908 |
| CCCC(=O)O[C@]1(C(=O)CO)CC[C@H]2[C@@H]3CCC4=CC(=O)CC[C@]4(C)[C@H]3[C@@H](O)C[C@@]21C [Hydrocortisone butyrate] | 0.786 |
| COc1ccc2c3c1O[C@H]1C[C@@H](O)C=C[C@@]31CCN(C)C2 [Galanthamine HBr] | 0.925 |
| CO[C@H]1C[C@@H]2CC[C@@H](C)[C@@](O)(O2)C(=O)C(=O)N2CCCC[C@H]2C(=O)O[C@H]([C@H](C)C[C@@H]2CC[C@H](n3cnnn3)[C@H](OC)C2)CC(=O)[C@H](C)/C=C(\C)[C@@H](O)[C@@H](OC)C(=O)[C@H](C)C[C@H](C)/C=C/C=C/C=C/1C [Zotarolimus] | 0.754 |
| CCCC(=O)Nc1cccc(NC(=O)c2ccccc2Br)c1 | 1.12 |
| C#CC1(O)CC[C@H]2[C@@H]3CCC4=CC(=O)CC[C@@H]4[C@H]3CC[C@@]21CC (some centres not stated) [Norgestrel] | 1.2 |
| O=C(c1ccc(Cl)cc1Cl)n1nnc2ccccc21 | 1.03 |
| N=C(NOCC(O)CN1CCCCC1)c1cccnc1 (configuration not stated) | 1.02 |
| COc1cc(-c2cc(-c3cccc(O)c3)cnc2N)cc(OC)c1OC | 1.01 |
| Nc1[nH]c(=O)nc2c1ncn2[C@@H]1O[C@H](CO)[C@@H](O)[C@H]1O | 1.21 |
| O=C(O)c1ccc(O)c2ncccc12 | 0.999 |
| COc1cc2ncnc(Nc3ccc(O)c(Br)c3)c2cc1OC | 1.02 |
| CN(C)Cc1ccc(-c2cnn3c(-c4cccc(NC(=O)c5cccc(C(F)(F)F)c5)c4)ccnc23)cc1 | 0.841 |
| Oc1cc(O)cc(/C=C/c2ccc(O)c(O)c2)c1 [Piceatannol] | 0.986 |
| CCN1CCN(c2ccc(Nc3cc(N(C)C(=O)Nc4c(Cl)c(OC)cc(OC)c4Cl)ncn3)cc2)CC1 [Infigratinib] | 0.781 |
| Nc1nc(=O)[nH]cc1F [Fluorocytosine] | 0.918 |
| CC[C@@]1(O)C(=O)OCc2c1cc1n(c2=O)Cc2cc3c(CN(C)C)c(O)ccc3nc2-1 [Topotecan hydrochloride] | 0.245 |
